Reference: the domain aggregation screens of Martell et al. (2025)

Assay: soluble fraction after stress (log2 fold change); higher = more stays soluble; pooled small domains, quantitative proteomics
Conditions: stress: pH 4
Outline: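 Pooled custom libraries of small protein domains were stressed at pH 4 and then measured by high-throughput quantitative proteomics. The fold change in the amount of each domain that stays soluble after the acid stress serves as a measure of aggregation propensity. Fold changes are given on a log2 scale, and higher values mean more of the domain stayed soluble.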

| Sequence | soluble fraction (log2) |
| --- | --- |
| HMEETALAIGREVGYPVIIKAAGGGGGRGMRVVRNEAELAAAIALTKSEAGQFFKNDMVYMEKYL | -0.167 |
| HMEGHVLRSPMVGTFYASSAPDKPAFVSVGQQVKEGETLAIIEAMKMFNPIEADKSGTIVAILG | -0.307 |
| HMRRLQTIVYEKGLASTIKQARQMITHGHIFMNGHRVTVPGYLVTRAEESSIEFNPASPFTDEMHPM | 0.22 |
